Among the data in the antibiotic and cytotoxicity screens of Wong et al. (2023) are cytotoxicity call and growth inhibition call values, retold here.

The list shows a part of the results.

The subject of test [1] is HSkMC (human skeletal muscle cells). As to the kind of experiment: cytotoxicity call (relative viability < 0.9). To be noted: 10 µM.
Test [2] concerns HepG2. Kind of test: cytotoxicity call (relative viability < 0.9). To be noted: 10 µM.
Test [3] concerns S. aureus RN4220. As to the kind of experiment: growth inhibition call (relative growth <= 0.2). Conditions: 50 µM.

Take `COc1ccc(S(=O)(=O)Nc2ccc3c(c2)C(=O)N([C@H](C)CO)C[C@@H](C)[C@H](CN(C)Cc2ccc(C(F)(F)F)cc2)OCCCC[C@@H](C)O3)cc1`: the cytotoxicity call in test [1] was “inactive”. Moreover, the cytotoxicity call in test [2] was “active”. For the same molecule, the growth inhibition call in test [3] was “inactive”.

As to `O=C1OCCN(c2ccccc2)C1=O`, the cytotoxicity call in test [1] and in test [2] was “inactive” throughout. In addition, the growth inhibition call in test [3] was “inactive”.

As to `C[C@@H]1CCCCO[C@@H](CN(C)S(=O)(=O)c2ccc(Cl)cc2)[C@@H](C)CN([C@H](C)CO)C(=O)c2cc(NS(=O)(=O)c3ccc(F)cc3)ccc2O1`, the cytotoxicity call in test [1] and in test [2] was “inactive” throughout. Also, the growth inhibition call in test [3] was “inactive”.

Turning to `Cc1ccc(S(=O)(=O)N(C)C[C@@H]2Oc3ncc(-c4ccncc4)cc3C(=O)N([C@@H](C)CO)C[C@H]2C)cc1`, the cytotoxicity call in test [1] and in test [2] was “inactive” throughout. Also, the growth inhibition call in test [3] is “inactive”.

As for `COc1ccc(S(=O)(=O)N(C)C[C@H]2Oc3c(NS(=O)(=O)c4cn(C)cn4)cccc3C(=O)N([C@@H](C)CO)C[C@H]2C)cc1`, the cytotoxicity call in test [1] and in test [2] was “inactive” throughout. Further, the growth inhibition call in test [3] was “inactive”.

As to `CC(C)c1cccc(NC(=O)C[C@H]2CC[C@H]3[C@@H](COc4ccc(NS(=O)(=O)c5ccccc5Cl)cc4C(=O)N3C)O2)c1`, the cytotoxicity call in test [1] and in test [2] was “inactive” each time. The growth inhibition call in test [3] was “inactive”.

`Cc1noc(C)c1S(=O)(=O)Nc1ccc2c(c1)C(=O)N([C@H](C)CO)C[C@H](C)[C@H](CN(C)C(=O)Nc1ccc(C(F)(F)F)cc1)OCCCC[C@@H](C)O2`: the cytotoxicity call in test [1] and in test [2] was “inactive” in each case. For the same molecule, the growth inhibition call in test [3] was “inactive”.

With `C[C@@H]1CCCCO[C@H](CN(C)C)[C@H](C)CN([C@@H](C)CO)C(=O)c2cc(NC(=O)Nc3ccc(C(F)(F)F)cc3)ccc2O1`, in test [1], the cytotoxicity call was “inactive”. Further, in test [2], the cytotoxicity call is “active”. The growth inhibition call in test [3] was “inactive”.

Regarding `COC(=O)c1c2oc(c1C(=O)OC)C(=O)N[C@@H](Cc1ccccc1)Cn1cc(nn1)[C@@H](Cc1ccccc1)NC(=O)N[C@@H](CO)CC2`, the cytotoxicity call in test [1] and in test [2] was “inactive” in each case. The growth inhibition call in test [3] was “inactive”.

For the molecule `COc1ccc(NC(=O)Nc2cccc3c2O[C@H](CN(C)Cc2ccc(Cl)c(Cl)c2)[C@H](C)CN([C@@H](C)CO)C3=O)cc1`, the cytotoxicity call in test [1] and in test [2] was “inactive” throughout. In addition, in test [3], the growth inhibition call is “inactive”.
